Test results taken from PubChem BioAssay AID1508623 (National Center for Advancing Translational Sciences (NCATS), 2021).
The whole screen tested about 48,000 compounds, of which about 450 (0.94%) were called active. Not shown: some 19% with an inconclusive outcome. Calls come from the whole dose curve; as a rule, active = well fitted inhibition curve with a large enough effect; inconclusive = small, poorly fitted or top-dose-only effect; inactive = no such curve, though single readings can be large or run the other way. The list shows a part of the results.

test: Primary qHTS for Identification of Small Molecule Inhibitors of Huntingtin Promoter Activity; details: HEK293 HTT promoter firefly luciferase reporter (activity 0% = vehicle and -100% = no light), 24 h; series mostly up to 57.5 µM; activity change, negative = inhibition: at the top concentration; note: nearly all actives have a fitted effect of over 50% in size
How it was run: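 Quantitative HTS used concentration series of up to 57.5 uM final on HEK293 luciferase reporter cells, 24 h at 37 degrees C. Readout was Dual-Glo firefly luminescence.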
Potency is the fitted concentration of half-maximal effect.

| SMILES | Potency | activity change, negative = inhibition |
| --- | --- | --- |
| Cc1n[nH]c(C)c1S(=O)(=O)N1CCCC(C(=O)Nc2ccc(Cl)cc2)C1 (stereo not drawn) | active: 28.2 µM |  |
| Cc1ccc(C)c(N2CCN(C(=O)Cn3c(-c4cccs4)cc4ccccc43)CC2)c1 |  | inactive: -29.8% |
| CCN(C(=O)Cn1cc(S(=O)(=O)Cc2ccccc2Cl)c2ccccc21)c1ccccc1 |  | inactive: -21.4% |
| CCOC(=O)c1ccc(NC(=O)C(CC)Sc2nc3ncccc3o2)cc1 (stereo not drawn) |  | inactive: 74.8% |
| C[C@@H](CN(C)C)CN1c2ccccc2Sc2ccccc21 |  | inactive: -14% |
| Cc1ccc(N2CCN(C(=O)c3c4c(nc5ccccc35)C(=O)N(C3CCCCC3)C4)CC2)c(C)c1 |  | inactive: -4.54% |
| COc1ccc(C(=O)Nc2nc3c(s2)CCc2cc(OC)ccc2-3)cc1 |  | inactive: -6.68% |
| COCCCn1c(SCC(=O)NCc2ccccc2)nc2c(sc3ccccc32)c1=O |  | inactive: -3.5% |
| Cc1ccc(-n2ncc3c(N4CCN(CCO)CC4)ncnc32)cc1Cl |  | inactive: 21.2% |
| CCCCNc1nc(Oc2ccc(OCC(N)=O)nn2)nc(N2CCOCC2)n1 |  | inactive: -6.44% |
| COc1ccc(C2C(=O)c3ccccc3C2=O)cc1 |  | inactive: 10.5% |
| CC(C)n1c(C=C[C@H](O)C[C@H](O)CC(=O)O)c(-c2ccc(F)cc2)c2ccccc21 |  | inactive: 13.8% |
| CCOc1cc(C2c3c(oc4ccc(F)cc4c3=O)C(=O)N2Cc2ccco2)ccc1O (stereo not drawn) |  | inactive: -11.4% |
| Cc1ccc(-c2cc(C(=O)NCc3cnn(C)c3)c3cc(Br)ccc3n2)cc1 |  | inactive: 9.81% |
| Cc1ccc(-n2c(SCC(=O)Nc3ccc4c(c3)OCO4)nc3c([nH]c4ccccc43)c2=O)cc1 |  | inactive: -8.14% |
| CCc1ccccc1N(C)C(=O)c1cnc(N2CCOCC2)c2ccccc12 |  | inactive: -5.33% |
| Cc1cc(Br)ccc1NC(=O)c1cn(C2CCCC2)c(=O)c2c1c1ccccc1n2C |  | inactive: 0.797% |
| Cc1ccc(Cc2nc3ccccc3nc2SCC(=O)NCc2ccc(F)cc2)cc1 |  | inactive: -2.56% |
| CCC(=O)C1=C(c2cccc([N+](=O)[O-])c2)N(C(=O)CC)n2c(nnc2-c2ccccc2)S1 |  | inactive: -9.46% |
| COc1ccc(CCNC(=O)Cn2c(=O)n(-c3cc(OC)c(OC)c(OC)c3)c(=O)c3ccccc32)cc1OC |  | inactive: -15.2% |
| COc1cccc(CNc2nc3c(-c4ccccc4)nnn3c3ccccc23)c1 |  | inactive: -11.2% |
| Cc1ccc2oc(=O)c3cnn(CC(=O)N4CCN(c5cc(Cl)ccc5C)CC4)c3c2c1 |  | inactive: 10.4% |
| CN1C(C(=O)Nc2ccccn2)=C(O)c2sccc2S1(=O)=O |  | inactive |
| CN(Cc1ccccc1)C(=O)CSc1nc2ccsc2c(=O)n1-c1ccc(F)cc1 |  | inactive: -9.39% |

| SMILES | Potency | activity change, negative = inhibition |
| --- | --- | --- |
| CCn1cc(C(=O)NCCCN(CC(C)C)CC(C)C)c(=O)c2cc(S(=O)(=O)N(C)C3CCCCC3)ccc21 |  | inactive: -3.71% |
| COc1ccc(NC(=O)CCc2nnc3n(C)c(=O)c4sccc4n23)cc1Cl |  | inactive: -4.54% |
| COc1cccc(N2C(=O)N(Cc3ccc(C#N)cc3)c3ccccc3S2(=O)=O)c1 |  | inactive: -22.8% |
| CCc1ccccc1NC(=O)Cn1c(=O)n(CC2CCC(C(=O)NCCc3ccccc3)CC2)c(=O)c2ccccc21 (stereo not drawn) |  | inactive: -7.23% |
| CCC(=O)N1CCc2cc(Br)cc(S(=O)(=O)CCC(=O)Nc3ccc(C)c(C)c3)c21 |  | inactive: -2.84% |
| COc1ccc(-c2noc(-c3ccc(NCc4cccnc4)c([N+](=O)[O-])c3)n2)cc1 |  | inactive: -2.77% |
| COc1ccc(C2=NS(=O)(=O)N(C)C(C(=O)NCc3ccccc3)=C2)cc1OC |  | inactive: -0.346% |
| CCc1ccc(NC(=O)C(=O)NCC(c2ccc3c(c2)OCO3)N2CCOCC2)cc1 (stereo not drawn) |  | inactive: -17.1% |
| Cc1ccc(Cl)c(NC(=O)Nc2csc3c2CCCC3)c1 |  | inactive: 14.8% |
| Cc1ncc([N+](=O)[O-])n1CC(O)CCl (stereo not drawn) |  | inactive: 1.18% |
| CCCC(=O)N(c1ccc2oc(C)c(C(C)=O)c2c1)S(=O)(=O)c1ccc(C)cc1 |  | inactive: -24% |
| CCOC(=O)c1nc(N2CCN(c3ccc(F)cc3)CC2)c2c(C)noc2n1 |  | inactive: -20.1% |
| CCn1c(=O)n(-c2ccc(F)c(Cl)c2)c(=O)c2c3c(sc21)CN(C(C)=O)CC3 |  | inactive: -13.3% |
| COc1cccc(C(=O)Nc2ccc(-c3nc4ccccc4s3)cc2Cl)c1 |  | inactive: -12.3% |
| COc1ccc(NC(=O)CCCc2nnc3n(CCC(C)C)c(=O)c4sccc4n23)c(OC)c1 |  | inactive: -11.4% |
| COc1ccc(-c2csc3nc(-c4ccc(F)cc4)oc(=O)c23)cc1 |  | inactive: 1.62% |
| COCCNC(=O)c1ccc(-n2c(-c3ccccc3)cc3c2CCCCC3)cc1 |  | inactive: 15.4% |
| CCc1ccccc1NC(=O)Cn1nnc(-c2nc(-c3ccc(C)cc3)no2)c1N |  | inactive: 5.82% |
| CCOC(=O)c1ccccc1NC(=O)CN1C(=O)CC(c2ccco2)Sc2ccccc21 (stereo not drawn) |  | inactive: -22.2% |
| Cc1oc(-c2ccc(Cl)cc2)nc1Cn1c(=O)cc(C)c2c(C)nn(-c3cccc(F)c3)c21 |  | inactive: -0.908% |
| Cc1ccc(C(=O)Nc2ccc(C(=O)OCc3cc(=O)n4nc(C5CC5)sc4n3)cc2)cc1 |  | inactive: 0.194% |
| CCn1cc(C(=O)N2CCN(c3ccc(F)cc3)CC2)c(=O)c2cc(S(=O)(=O)N3CCOCC3)ccc21 |  | inactive: -0.27% |
| COc1ccc(NC(=O)C(=O)NCC(c2ccc3c(c2)OCO3)N2CCN(C)CC2)cc1 (stereo not drawn) |  | inactive: -13% |
| CCOc1cc(CNC(=O)CCCn2c(=O)c3cccn3c3cccnc32)cc(OCC)c1OCC |  | inactive: -22.8% |
